Test results: publication PMC11558135
These are yes or no findings as the source states them, for the method shown. Binding seen in cells or lysates may run through a third protein. Some binding calls cover weakened binding; strength is not graded here. For part of these data: Sequences can lack the tags named with a protein.

Chains of the proteins cited; added tags and fusions are not shown. Lines headed by an entry give the natural chain unless they say otherwise; changes in a name come on top. A line that says so, or that is headed by a name, gives the form on record, which may keep a tag or linker. Residues count along the entry.
UniProt P62960: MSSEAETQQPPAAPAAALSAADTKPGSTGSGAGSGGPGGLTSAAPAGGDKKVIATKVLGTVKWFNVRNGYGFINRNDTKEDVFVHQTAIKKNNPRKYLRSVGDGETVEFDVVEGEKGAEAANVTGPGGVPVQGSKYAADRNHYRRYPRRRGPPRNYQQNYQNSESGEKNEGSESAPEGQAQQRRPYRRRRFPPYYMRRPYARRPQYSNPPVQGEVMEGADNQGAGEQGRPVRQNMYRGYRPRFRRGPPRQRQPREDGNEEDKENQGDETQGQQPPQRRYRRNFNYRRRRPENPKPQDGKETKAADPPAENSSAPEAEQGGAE
UniProt P67809: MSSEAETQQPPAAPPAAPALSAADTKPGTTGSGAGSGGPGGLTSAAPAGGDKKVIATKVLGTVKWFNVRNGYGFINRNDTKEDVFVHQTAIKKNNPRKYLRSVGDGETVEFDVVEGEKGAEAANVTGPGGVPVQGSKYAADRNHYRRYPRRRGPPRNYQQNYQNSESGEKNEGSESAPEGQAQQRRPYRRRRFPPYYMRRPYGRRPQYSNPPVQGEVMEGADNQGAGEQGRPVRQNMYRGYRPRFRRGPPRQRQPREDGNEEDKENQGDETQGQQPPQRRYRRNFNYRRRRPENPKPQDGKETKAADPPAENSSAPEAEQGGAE
YBX1-(Δ126-324aa)-Myc: residues 1-125 of P67809
YBX1-(Δ1-60aa)-Myc: residues 61-324 of P67809
YBX1-(Δ61-125aa)-Myc (P67809, form named): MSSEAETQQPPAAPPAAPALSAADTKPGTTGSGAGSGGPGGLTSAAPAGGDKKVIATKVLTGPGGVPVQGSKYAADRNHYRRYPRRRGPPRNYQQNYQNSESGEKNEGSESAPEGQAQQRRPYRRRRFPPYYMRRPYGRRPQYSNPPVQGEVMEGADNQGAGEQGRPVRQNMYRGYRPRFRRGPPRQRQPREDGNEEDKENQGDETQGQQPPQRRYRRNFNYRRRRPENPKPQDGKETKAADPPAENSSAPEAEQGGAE

B1: E3 ubiquitin ligase TRIM56, endogenous (protein, UniProt Q80VI1 1-734)
chain: MNSKVSSPTLLEALSSDFLACKICLEQLHTPKTLPCLHTYCQDCLAQLDIGGQVRCPECREIVPVPAEGVAAFKTNFFVNGLLDLVKARAPGDVHSGKPTCALCPLVGGKSSGGPATARCLDCADDLCQACADGHRCSRQTHKHRVVDLVGYRAGWYDEEARERQASQCPQHPGEALCFLCQPCSQLLCKDCRLGPHIDHPCLPLAEAVRSRKPGLEELLAGVDSNLVELEATRVAEKEALALLREQAASVGTQVEEAAERILKSLLAQKQEVLGQLRALVEAAEEATRERLTKIERQEQVAKAAAAFARRVLSLGLEAEILSLEGAITQRLRQLQDAPWTSGPTRCVLPQLELHPGLEDKNCHLLRLIFEEPKQSPKDSGKGGAGTQGGDEAQGQGDDRTKIGKQGGAQPLTPKEGKDQNPQEDDGVFIERGNRPNKKKKCKGRGKSVSREPSPILRPNLEGSGLLPRPVFSWSFPTRMPGDKRSPRITGLCPYGPQEILVADEQNRVLKRFSLNGDYKGTVQVPEGCSPCSVAALQNAVAFSANAKLYLVSPDGEIQWRRSLSLTQSSHAVAAMPCGDRVAVSVAGHVEVYKKDGSLATRFIPGGKASRGQRALVFLTTSPQGNFVGSDWQQNSVVFCDGLGQVIWEYKGPGLHGCQPGSVSVDKKGYIFLTLREVNKVVILDPKGSLLGDFLTAYHGLEKPRVTTMVDGKYLVVSLSNGTIHVFRVRFPDS
B2: Flag-tagged full-length TRIM56 (protein, UniProt Q9BRZ2 1-755)
chain: MVSHGSSPSLLEALSSDFLACKICLEQLRAPKTLPCLHTYCQDCLAQLADGGRVRCPECRETVPVPPEGVASFKTNFFVNGLLDLVKARACGDLRAGKPACALCPLVGGTSTGGPATARCLDCADDLCQACADGHRCTRQTHTHRVVDLVGYRAGWYDEEARERQAAQCPQHPGEALRFLCQPCSQLLCRECRLDPHLDHPCLPLAEAVRARRPGLEGLLAGVDNNLVELEAARRVEKEALARLREQAARVGTQVEEAAEGVLRALLAQKQEVLGQLRAHVEAAEEAARERLAELEGREQVARAAAAFARRVLSLGREAEILSLEGAIAQRLRQLQGCPWAPGPAPCLLPQLELHPGLLDKNCHLLRLSFEEQQPQKDGGKDGAGTQGGEESQSRREDEPKTERQGGVQPQAGDGAQTPKEEKAQTTREEGAQTLEEDRAQTPHEDGGPQPHRGGRPNKKKKFKGRLKSISREPSPALGPNLDGSGLLPRPIFYCSFPTRMPGDKRSPRITGLCPFGPREILVADEQNRALKRFSLNGDYKGTVPVPEGCSPCSVAALQSAVAFSASARLYLINPNGEVQWRRALSLSQASHAVAALPSGDRVAVSVAGHVEVYNMEGSLATRFIPGGKASRGLRALVFLTTSPQGHFVGSDWQQNSVVICDGLGQVVGEYKGPGLHGCQPGSVSVDKKGYIFLTLREVNKVVILDPKGSLLGDFLTAYHGLEKPRVTTMVDGRYLVVSLSNGTIHIFRVRSPDS

Experiments:
[1] = target: Y-box-binding protein 1 (YBX1), endogenous (mouse (endogenous in mouse spinal cord tissue; the species of the primary neurons is not stated)) (UniProt P62960); experiment: co-IP; endogenous proteins in spinal cord tissue lysate of mice after SCI surgery or sham surgery, magnetic beads, washed three times with 0.5% PBST
[2] = target: Y-box-binding protein 1 (YBX1), endogenous (mouse (endogenous in mouse spinal cord tissue; the species of the primary neurons is not stated)) (UniProt P62960); experiment: co-IP; endogenous proteins in primary neurons lysate, anti-YBX1 or anti-TRIM56 primary antibody, magnetic beads, washed three times with 0.5% PBST; neurons with or without OGD treatment
[3] = target: YBX1-(Δ61-125aa)-Myc (UniProt P67809); experiment: co-IP; HEK293T cells co-transfected with Flag-TRIM56 and Myc-YBX1 or its truncated mutants, lysate, anti-Flag or anti-Myc antibody, magnetic beads, washed three times with 0.5% PBST
[4] = target: Myc-tagged YBX1 (UniProt P67809); experiment: as above
[5] = target: YBX1-(Δ126-324aa)-Myc (UniProt P67809); experiment: as above
[6] = target: YBX1-(Δ1-60aa)-Myc (UniProt P67809); experiment: as above

Binder	binding [1]	binding [2]	binding [3]	binding [4]	binding [5]	binding [6]
B1	binds	binds	–	–	–	–
B2	–	–	no binding	binds	binds	no binding
